Experimental data reported in the supplement of paper PMC4166925.
± gives the standard deviation of the averaged measurements. In all, about 33,000 sequences were measured (“E-score (dimensionless, -0.5 to 0.5)”: median about -0.046, highest 2% from about 0.36 on). This is one part of the list.

What follows are sequences tested on T1, SpTbr T-box DNA-binding domain (GST fusion) (assay: PBM E-score of 8-mer (E-score (dimensionless, -0.5 to 0.5)); Tbr is Tbrain of the sea star Patiria miniata (Pm) or the sea urchin Strongylocentrotus purpuratus (Sp); higher = stronger binding preference; most listed sequences are background and not binding sites). Conditions: the construct has about 5 more residues each side.
T1 sequence: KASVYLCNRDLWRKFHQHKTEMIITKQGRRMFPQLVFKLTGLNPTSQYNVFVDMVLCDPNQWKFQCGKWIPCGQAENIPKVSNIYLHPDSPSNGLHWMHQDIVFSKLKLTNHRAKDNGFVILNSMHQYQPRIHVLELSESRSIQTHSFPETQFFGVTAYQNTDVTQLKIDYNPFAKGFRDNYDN
Method: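 Universal protein-binding microarray (Agilent AMADID 016060, 60-bp probes with a 35-bp variable region) incubated with 200 nM GST-fused Strongylocentrotus purpuratus Tbr T-box DNA-binding domain (residues 362-554) in PBS pH 7.5. Scored for every ungapped 8-mer (given with its reverse complement) as E-score (range -0.5 to 0.5; >0.45 counts as bound) and Z-score of median probe intensity. Two replicate arrays (datasets 1 and 2).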
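Note: protein at 200 nM in PBS on universal double-stranded arrays.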

Sequence	PBM E-score of 8-mer
ACGTTCTA	-0.115 ± 0.021
AAGGCAAA	-0.182 ± 0.027
AGATTTCC	-0.118 ± 0.024
CTGGTCTA	-0.111 ± 0.014
GCCGACTA	-0.0661 ± 0.027
AGTAGAAT	-0.219 ± 0.017
CTCCGCAA	-0.185 ± 0.095
AGAAGATA	-0.171 ± 0.078
CGTTTATA	-0.295 ± 0.032
CCATTAAA	-0.212 ± 0.065
CACTGGCC	-0.159 ± 0.077
CCTCGAGG	0.00849 ± 0.019
CTTCCGGC	-0.0641 ± 0.0021
CGATACTA	-0.0248 ± 0.015
AGCTTCGG	-0.218 ± 0.022
ATGATTGC	-0.169 ± 0.038
CACTATCG	0.164 ± 0.015
TGATGGCA	0.067 ± 0.053
CATCTGAG	-0.142 ± 0.031
AGGGGTGC	0.222 ± 0.042
GATAAGCA	-0.0139 ± 0.028
ACGCAGCA	-0.0519 ± 0.11
AGGCACAC	0.227 ± 0.022
ACGTGACC	0.135 ± 0.082
GTGAGAGA	0.339 ± 0.0054

Sequence	PBM E-score of 8-mer
GAATCGGC	-0.089 ± 0.0017
CAAAGACC	-0.203 ± 0.007
CACCCATA	0.113 ± 0.015
GATGGACA	-0.153 ± 0.011
CCAGGTTA	-0.17 ± 0.14
GTTCAAAA	-0.166 ± 0.031
ACCCTGAG	0.0258 ± 0.022
GACGCACA	0.0977 ± 0.036
ATAACTAG	-0.0803 ± 0.047
CTATGATC	-0.192 ± 0.0053
ACACCTCA	0.4607 ± 0.0039
ACCGGCTC	-0.0962 ± 0.049
ACTCTCGG	-0.123 ± 0.051
TCCGAAAA	-0.0102 ± 0.087
CGGAAGAG	0.0304 ± 0.035
GGATATGA	-0.15 ± 0.011
ACAAACTC	0.149 ± 0.049
AAAAATAC	-0.0542 ± 0.049
ACCTACGG	-0.131 ± 0.025
CTCTCGAA	-0.00998 ± 0.018
GTGAACTA	0.255 ± 0.011
AAGTCGGA	-0.304 ± 0.031
AATCAGAT	-0.0488 ± 0.017
TGCCGCCA	0.207 ± 0.036
GAAGGAAC	-0.167 ± 0.056

Sequence	PBM E-score of 8-mer
CGTATACG	-0.0206 ± 0.13
AACTAGAC	-0.215 ± 0.091
AGCTCGAG	-0.16 ± 0.09
GAATTTCC	-0.0405 ± 0.041
ATCAGGCC	-0.367 ± 0.035
GAGCGCAC	-0.05899 ± 0.00038
GTCATATA	-0.0155 ± 0.092
CAGAGGCG	0.135 ± 0.058
AAGTGAAT	0.0133 ± 0.0032
CAGTCTTC	-0.157 ± 0.048
TAGTTACA	-0.0656 ± 0.014
CACCCGGC	0.101 ± 0.022
GTCCGGAC	-0.165 ± 0.059
CTCGCCAG	0.00081 ± 0.048
GTTCCAAC	-0.1 ± 0.087
ACTCGCTG	0.138 ± 0.064
ACCTCAGG	0.0227 ± 0.008
ACCAATCG	0.0341 ± 0.021
AGAATGAC	0.0493 ± 0.042
CACTCGAA	0.205 ± 0.011
CTCTACCA	-0.11 ± 0.036
AGTAGTGA	0.109 ± 0.059
AGAGGGAT	-0.144 ± 0.12
AGGGAGGG	-0.224 ± 0.039
GGCTATCA	-0.0415 ± 0.069

Sequence	PBM E-score of 8-mer
GCGGACAA	-0.133 ± 0.06
AAGAGTTG	-0.00626 ± 0.028
AGTATGCA	-0.0433 ± 0.0085
AGTAGCGA	0.188 ± 0.0035
AGTCCGGA	-0.0864 ± 0.026
CCAATAAA	-0.104 ± 0.012
GACCTGTA	-0.133 ± 0.054
CTGGTTGA	-0.0222 ± 0.079
GGAAGCTA	-0.168 ± 0.018
CGGTATGC	-0.18 ± 0.0084
ACGGCATG	-0.0835 ± 0.0075
AGACACAG	-0.0147 ± 0.027
CACCACGA	-0.0413 ± 0.025
CAGTATGA	-0.16614 ± 7.8e-05
AAAATAAT	-0.135 ± 0.11
AAAAGAAC	-0.147 ± 0.019
CTCGATAA	0.1127 ± 0.00061
CCCCGTCG	-0.0445 ± 0.094
AGACACAT	0.229 ± 0.0028
GTAGCTGA	-0.00722 ± 0.057
GCACAGAC	0.00368 ± 0.011
CGAAGGTA	0.00844 ± 0.058
ACATTTGG	0.084 ± 0.14
ATAAAGGA	-0.309 ± 0.075
ACCGTTCA	0.027 ± 0.023

Sequence	PBM E-score of 8-mer
ACGCAGAC	-0.105 ± 0.081
ATGGGTGG	-0.13 ± 0.042
ATGTGACG	0.285 ± 0.026
GTGCAAGA	0.0107 ± 0.013
ACTCACAT	0.124 ± 0.049
ATTATTCC	-0.246 ± 0.01
GCCCGCCC	-0.154 ± 0.007
GTTAACCA	0.036 ± 0.064
CACAGTAA	0.0163 ± 0.1
GAAAGTGC	0.135 ± 0.03
CTTTAAGA	-0.26 ± 0.011
GAGCGACA	0.198 ± 0.054
GCTGAGCA	0.0169 ± 0.0038
AGCTGTTG	0.208 ± 0.0081
TCGAGTAA	-0.0353 ± 0.036
ATGAGAAG	-0.29 ± 0.056
AGGCGCCT	-0.124 ± 0.004
ACGCGAGC	0.212 ± 0.023
GAGGTCCA	-0.242 ± 0.0045
CAAACTGG	0.0711 ± 0.03
ACGGGGAT	0.0216 ± 0.018
AACGAATA	-0.142 ± 0.048
CACCCTCG	0.36 ± 0.0041
GCAGTAGC	-0.136 ± 0.042
TTGGAAAA	-0.105 ± 0.065

Sequence	PBM E-score of 8-mer
AGGCAATA	-0.235 ± 0.044
CTTGGGTC	-0.21 ± 0.01
AAGTCTGA	-0.165 ± 0.083
CGAGGCCG	-0.111 ± 0.09
CTAGGGAC	-0.0934 ± 0.027
CAGCCATA	0.00517 ± 0.021
GTGTCTCA	0.178 ± 0.058
CACAGAAC	-0.0292 ± 0.046
AGGAGAAG	-0.33 ± 0.021
CTTGTCAA	0.355 ± 0.0065
AATAATAT	-0.0261 ± 0.018
AGCCATTC	-0.0528 ± 0.028
AGTACGAC	-0.0149 ± 0.051
CCACATGG	0.0382 ± 0.036
CACGTGTA	0.272 ± 0.0034
GACATCTA	0.0108 ± 0.011
ATCCCCAT	-0.144 ± 0.041
ATGTATGC	-0.249 ± 0.025
CCGTACGC	-0.0684 ± 0.011
CAAGGGAG	0.00799 ± 0.084
AAGCCGGT	-0.0642 ± 0.049
GCGGGAGC	0.0723 ± 0.018
TATTGTGA	0.277 ± 0.057
AGCTTCGC	0.274 ± 0.022
CGTCCTAG	-0.234 ± 0.04

Sequence	PBM E-score of 8-mer
AAAGACTA	0.0263 ± 0.048
ATCTAATA	-0.166 ± 0.09
CCCCATCA	0.0111 ± 0.0018
CAGCTATC	-0.0505 ± 0.015
ACTAGACA	-0.042 ± 0.016
CGTAGATC	-0.215 ± 0.032
AGAGGATA	-0.0705 ± 0.087
AGTGGTAC	-0.16 ± 0.01
ATGATCCG	0.00428 ± 0.051
CCTGCCAG	0.126 ± 0.064
ACGTTCCG	-0.143 ± 0.033
GTTCCGGA	-0.374 ± 0.01
ATGCAGCG	-0.0788 ± 0.099
AAAACGAC	-0.0361 ± 0.045
AGAATAGG	-0.132 ± 0.061
CCCCCCGC	-0.0963 ± 0.12
GGCAGGCC	-0.231 ± 0.078
GCTGTGCA	0.0558 ± 0.051
CAAAGGTG	0.3923 ± 0.00076
GGCCAGCA	0.0296 ± 0.0025
AATCCTAT	-0.143 ± 0.0062
CCAGGTTC	-0.0508 ± 0.007
